Data: the supplement of paper PMC4967469
Lines with a small IC50 respond at low doses; where the fit passes the top or lowest dose, that dose stands as a limit. AUC is the area under the same curve over the 256-fold range up to the top dose, as a fraction: 1 means no effect, lower means more sensitive. An entry number marks a drug with two screens in the source, which often give different values.

Compound: CS(=O)(=O)N1CCN(Cc2cc3nc(-c4cccc5[nH]ncc45)nc(N4CCOCC4)c3s2)CC1 [GDC0941]
Experiment: Viability of human cancer cell lines after 72 h of drug (GDSC screen)
Settings: screen: GDSC drug entry 1058
Method: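 Human cancer cell lines in 384-well plates, medium with 10% serum, drug for 72 h over a 256-fold dose range (nine 2-fold or five 4-fold steps up to the top dose). Adherent lines were fixed and stained with the nucleic acid dye Syto60, suspension lines read with resazurin; signal relative to control wells, capped at 0 and 100%. One two-parameter sigmoid per drug and line, fitted in a mixed model over all curves with the slope shared within a line.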

| Cell Line | AUC | IC50 [µM] |
| --- | --- | --- |
| BICR10 (head and neck, adherent, top dose 4 µM) | 0.612 | 0.534 |
| BICR22 (head and neck, adherent, top dose 4 µM) | 0.675 | 0.831 |
| BICR78 (head and neck, adherent, top dose 4 µM) | 0.588 | 0.453 |
| BL-41 (Burkitt lymphoma, suspension, top dose 4 µM) | 0.837 | 1.83 |
| BPH-1 (prostate, adherent, top dose 2 µM) | 0.626 | 0.288 |
| BT-20 (breast, adherent, top dose 4 µM) | 0.764 | 1.79 |
| BT-474 (breast, adherent, top dose 4 µM) | 0.838 | 3.18 |
| BT-483 (breast, adherent, top dose 4 µM) | 0.868 | > 4 |
| BV-173 (chronic myeloid leukaemia, suspension, top dose 4 µM) | 0.822 | 1.98 |
| Becker (glioma, adherent, top dose 4 µM) | 0.797 | 2.16 |
| BxPC-3 (pancreas, adherent, top dose 4 µM) | 0.855 | 3.81 |
| C2BBe1 (large intestine, adherent, top dose 2 µM) | 0.938 | > 2 |
| C3A (liver, adherent, top dose 4 µM) | 0.988 | > 4 |
| C32 (melanoma, adherent, top dose 4 µM) | 0.859 | 3.69 |
| C-4-I (cervix, adherent, top dose 4 µM) | 0.686 | 0.871 |
| C-33-A (cervix, adherent, top dose 4 µM) | 0.919 | > 4 |
| CA46 (Burkitt lymphoma, suspension, top dose 4 µM) | 0.899 | > 4 |
| CADO-ES1 (Ewing sarcoma, suspension, top dose 4 µM) | 0.95 | > 4 |
| CAL-12T (non-small cell lung carcinoma, adherent, top dose 4 µM) | 0.826 | 2.82 |
| CAL-27 (head and neck, adherent, top dose 4 µM) | 0.784 | 1.73 |
| CAL-29 (bladder, adherent, top dose 4 µM) | 0.643 | 0.644 |

| Cell Line | AUC | IC50 [µM] |
| --- | --- | --- |
| CAL-33 (head and neck, adherent, top dose 4 µM) | 0.456 | 0.189 |
| CAL-39 (cervix, adherent, top dose 4 µM) | 0.782 | 1.74 |
| CAL-54 (kidney, adherent, top dose 2 µM) | 0.776 | 0.919 |
| CAL-62 (thyroid, adherent, top dose 4 µM) | 0.846 | 2.71 |
| CAL-72 (osteosarcoma, adherent, top dose 4 µM) | 0.918 | > 4 |
| CAL-78 (chondrosarcoma, adherent, top dose 4 µM) | 0.921 | > 4 |
| CAL-120 (breast, adherent, top dose 4 µM) | 0.918 | > 4 |
| CAPAN-1 (pancreas, adherent, top dose 4 µM) | 0.918 | > 4 |
| CAS-1 (glioma, adherent, top dose 4 µM) | 0.928 | > 4 |
| CCF-STTG1 (glioma, adherent, top dose 4 µM) | 0.804 | 2.01 |
| CCK-81 (large intestine, adherent, top dose 4 µM) | 0.903 | > 4 |
| CCRF-CEM (lymphoblastic leukaemia, suspension, top dose 4 µM) | 0.815 | 1.76 |
| CESS (acute myeloid leukaemia, suspension, top dose 4 µM) | 0.966 | > 4 |
| CFPAC-1 (pancreas, adherent, top dose 4 µM) | 0.944 | > 4 |
| CGTH-W-1 (thyroid, adherent, top dose 4 µM) | 0.793 | 1.81 |
| CHL-1 (melanoma, adherent, top dose 4 µM) | 0.56 | 0.362 |
| CHP-126 (neuroblastoma, suspension, top dose 4 µM) | 0.939 | > 4 |
| CHP-134 (neuroblastoma, suspension, top dose 4 µM) | 0.87 | > 4 |
| CHP-212 (neuroblastoma, adherent, top dose 4 µM) | 0.554 | 0.347 |
| CHSA0011 (chondrosarcoma, adherent, top dose 4 µM) | 0.86 | > 4 |
| CHSA0108 (chondrosarcoma, adherent, top dose 4 µM) | 0.621 | 0.568 |
